{"source": "the supplement of paper PMC8728848", "binders": {"B1": {"name": "NKp30 (Homo sapiens), O14931 (protein)", "chain": "MAWMLLLILIMVHPGSCALWVSQPPEIRTLEGSSAFLPCSFNASQGRLAIGSVTWFRDEVVPGKEVRNGTPERFGRLAPLASSRFLHDHQAELHIRDVRGHDASIYVCRVEVLGLGVGTGNGTRLVVRKEHPQLGAGTHADPEAPEAEGAPSVFLFPPKPKDTLMISRTPEVTCVVVDVSHEDPEVKFNWYVDGVEVHNAKTPREEQYNSTYRVVSVLTVLHQDWLNGKEYKCKVSNKALPAPIEKTISKAKGQPREPQVYTLPPSRDELTKNQVSLTCLVKGFYPSDIAVEWESNGQPENNYKTTPPVLDSDGSFFLYSKLTVDKSRWQQGNVFSCSVMHEALHNHYTQKSLSLSPGK"}}, "test_in_all_cases": "glycan array binding signal (z-score within array); higher = stronger binding", "conditions_in_all_cases": "glycan notation: IUPAC condensed, linker removed", "key": {"[1]": {"target": "Neu5Ac(a2-3)Gal(b1-3)GalNAc(b1-3)Gal(a1-4)Gal(b1-4)Glc", "how_it_was_run": "(§1)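 The Consortium for Functional Glycomics database supplied 3228 glycan arrays, of which those lacking an available protein sequence were dropped. The binding signal, a within-array Z-score, was averaged across arrays of the same protein sequence and across linkers. Negative scores can be read as non-binding.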"}, "[2]": {"target": "Neu5Ac(a2-3)Gal(b1-3)GalNAc(b1-3)Gal(b1-4)GlcNAc", "how_it_was_run": "as §1"}, "[3]": {"target": "Neu5Ac(a2-3)Gal(b1-3)GalNAc(b1-4)[Neu5Ac(a2-3)]Gal(b1-4)Glc", "how_it_was_run": "as §1"}, "[4]": {"target": "Neu5Ac(a2-3)Gal(b1-3)GalNAc6S", "how_it_was_run": "as §1"}, "[5]": {"target": "Neu5Ac(a2-3)Gal(b1-3)GlcNAc", "how_it_was_run": "as §1"}, "[6]": {"target": "Neu5Ac(a2-3)Gal(b1-3)GlcNAc(b1-3)Gal(b1-3)GlcNAc", "how_it_was_run": "as §1"}, "[7]": {"target": "Neu5Ac(a2-3)Gal(b1-3)GlcNAc6S", "how_it_was_run": "as §1"}, "[8]": {"target": "Neu5Ac(a2-3)Gal(b1-3)[Fuc(a1-4)]GlcNAc", "how_it_was_run": "as §1"}, "[9]": {"target": "Neu5Ac(a2-3)Gal(b1-3)[Fuc(a1-4)]GlcNAc(b1-3)Gal(b1-4)[Fuc(a1-3)]GlcNAc", "how_it_was_run": "as §1"}, "[10]": {"target": "Neu5Ac(a2-3)Gal(b1-3)[Neu5Ac(a2-3)Gal(b1-4)]GlcNAc", "how_it_was_run": "as §1"}, "[11]": {"target": "Neu5Ac(a2-3)Gal(b1-3)[Neu5Ac(a2-6)]GalNAc", "how_it_was_run": "as §1"}, "Neu5Ac(a2-3)Gal(b1-4)Glc": {"target": "Neu5Ac(a2-3)Gal(b1-4)Glc", "how_it_was_run": "as §1"}, "[12]": {"target": "Neu5Ac(a2-3)Gal(b1-4)GlcNAc", "how_it_was_run": "as §1"}, "[13]": {"target": "Neu5Ac(a2-3)Gal(b1-4)GlcNAc(b1-2)Man(a1-3)[GlcNAc(b1-2)Man(b1-4)GlcNAc(b1-2)Man(a1-6)]Man(b1-4)GlcNAc(b1-4)GlcNAc", "how_it_was_run": "as §1"}, "[14]": {"target": "Neu5Ac(a2-3)Gal(b1-4)GlcNAc(b1-2)Man(a1-3)[Neu5Ac(a2-6)Gal(b1-4)GlcNAc(b1-2)Man(a1-6)]Man(b1-4)GlcNAc(b1-4)GlcNAc", "how_it_was_run": "as §1"}, "[15]": {"target": "Neu5Ac(a2-3)Gal(b1-4)GlcNAc(b1-3)Gal(b1-3)GlcNAc", "how_it_was_run": "as §1"}, "[16]": {"target": "Neu5Ac(a2-3)Gal(b1-4)GlcNAc(b1-3)Gal(b1-4)GlcNAc", "how_it_was_run": "as §1"}, "[17]": {"target": "Neu5Ac(a2-3)Gal(b1-4)GlcNAc(b1-3)Gal(b1-4)GlcNAc(b1-3)Gal(b1-4)GlcNAc", "how_it_was_run": "as §1"}, "[18]": {"target": "Neu5Ac(a2-3)Gal(b1-4)GlcNAc(b1-3)Gal(b1-4)[Fuc(a1-3)]GlcNAc", "how_it_was_run": "as §1"}, "[19]": {"target": "Neu5Ac(a2-3)Gal(b1-4)GlcNAc(b1-6)[Gal(b1-3)]GalNAc", "how_it_was_run": "as §1"}, "[20]": {"target": "Neu5Ac(a2-3)Gal(b1-4)GlcNAc(b1-6)[Neu5Ac(a2-3)Gal(b1-3)]GalNAc", "how_it_was_run": "as §1"}, "[21]": {"target": "Neu5Ac(a2-3)Gal(b1-4)GlcNAc6S", "how_it_was_run": "as §1"}, "[22]": {"target": "Neu5Ac(a2-3)Gal(b1-4)[Fuc(a1-3)]GlcNAc", "how_it_was_run": "as §1"}, "[23]": {"target": "Neu5Ac(a2-3)Gal(b1-4)[Fuc(a1-3)]GlcNAc(b1-3)Gal", "how_it_was_run": "as §1"}, "[24]": {"target": "Neu5Ac(a2-3)Gal(b1-4)[Fuc(a1-3)]GlcNAc(b1-3)Gal(b1-4)GlcNAc", "how_it_was_run": "as §1"}, "[25]": {"target": "Neu5Ac(a2-3)Gal(b1-4)[Fuc(a1-3)]GlcNAc(b1-3)Gal(b1-4)[Fuc(a1-3)]GlcNAc(b1-3)Gal(b1-4)[Fuc(a1-3)]GlcNAc", "how_it_was_run": "as §1"}, "[26]": {"target": "Neu5Ac(a2-3)Gal(b1-4)[Fuc(a1-3)]GlcNAc(b1-6)[Gal(b1-3)]GalNAc", "how_it_was_run": "as §1"}, "[27]": {"target": "Neu5Ac(a2-3)Gal(b1-4)[Fuc(a1-3)]GlcNAc6S", "how_it_was_run": "as §1"}, "[28]": {"target": "Neu5Ac(a2-3)Gal6S(b1-4)GlcNAc", "how_it_was_run": "as §1"}, "[29]": {"target": "Neu5Ac(a2-3)Gal6S(b1-4)[Fuc(a1-3)]GlcNAc", "how_it_was_run": "as §1"}, "Neu5Ac(a2-3)GalNAc": {"target": "Neu5Ac(a2-3)GalNAc", "how_it_was_run": "as §1"}, "[30]": {"target": "Neu5Ac(a2-3)GalNAc(b1-4)GlcNAc", "how_it_was_run": "as §1"}, "[31]": {"target": "Neu5Ac(a2-3)[GalNAc(b1-4)]Gal(b1-4)Glc", "how_it_was_run": "as §1"}, "[32]": {"target": "Neu5Ac(a2-3)[GalNAc(b1-4)]Gal(b1-4)GlcNAc", "how_it_was_run": "as §1"}, "[33]": {"target": "Neu5Ac(a2-3)[Neu5Ac(a2-6)]GalNAc", "how_it_was_run": "as §1"}, "Neu5Ac(a2-6)Gal": {"target": "Neu5Ac(a2-6)Gal", "how_it_was_run": "as §1"}, "Neu5Ac(a2-6)Gal(b1-4)Glc": {"target": "Neu5Ac(a2-6)Gal(b1-4)Glc", "how_it_was_run": "as §1"}, "[34]": {"target": "Neu5Ac(a2-6)Gal(b1-4)GlcNAc", "how_it_was_run": "as §1"}}, "note": "Some of the results follow."}
{"binder": "B1", "values": [{"measurement": "glycan array binding signal (z-score)", "setting": "[1]", "value": -0.287}, {"measurement": "glycan array binding signal (z-score)", "setting": "[2]", "value": -0.494}, {"measurement": "glycan array binding signal (z-score)", "setting": "[3]", "value": -0.646}, {"measurement": "glycan array binding signal (z-score)", "setting": "[4]", "value": 0.104}, {"measurement": "glycan array binding signal (z-score)", "setting": "[5]", "value": 0.054}, {"measurement": "glycan array binding signal (z-score)", "setting": "[6]", "value": 0.007}, {"measurement": "glycan array binding signal (z-score)", "setting": "[7]", "value": -0.236}, {"measurement": "glycan array binding signal (z-score)", "setting": "[8]", "value": -0.058}, {"measurement": "glycan array binding signal (z-score)", "setting": "[9]", "value": 0.394}, {"measurement": "glycan array binding signal (z-score)", "setting": "[10]", "value": -0.341}, {"measurement": "glycan array binding signal (z-score)", "setting": "[11]", "value": -0.03}, {"measurement": "glycan array binding signal (z-score)", "setting": "Neu5Ac(a2-3)Gal(b1-4)Glc", "value": -0.284}, {"measurement": "glycan array binding signal (z-score)", "setting": "[12]", "value": 0.12}, {"measurement": "glycan array binding signal (z-score)", "setting": "[13]", "value": -0.438}, {"measurement": "glycan array binding signal (z-score)", "setting": "[14]", "value": -0.27}, {"measurement": "glycan array binding signal (z-score)", "setting": "[15]", "value": -0.795}, {"measurement": "glycan array binding signal (z-score)", "setting": "[16]", "value": -0.494}, {"measurement": "glycan array binding signal (z-score)", "setting": "[17]", "value": -0.284}, {"measurement": "glycan array binding signal (z-score)", "setting": "[18]", "value": -0.395}, {"measurement": "glycan array binding signal (z-score)", "setting": "[19]", "value": -0.411}, {"measurement": "glycan array binding signal (z-score)", "setting": "[20]", "value": -0.587}, {"measurement": "glycan array binding signal (z-score)", "setting": "[21]", "value": 0.043}, {"measurement": "glycan array binding signal (z-score)", "setting": "[22]", "value": -0.045}, {"measurement": "glycan array binding signal (z-score)", "setting": "[23]", "value": 0.191}, {"measurement": "glycan array binding signal (z-score)", "setting": "[24]", "value": 0.418}, {"measurement": "glycan array binding signal (z-score)", "setting": "[25]", "value": -0.204}, {"measurement": "glycan array binding signal (z-score)", "setting": "[26]", "value": 0.109}, {"measurement": "glycan array binding signal (z-score)", "setting": "[27]", "value": 0.03}, {"measurement": "glycan array binding signal (z-score)", "setting": "[28]", "value": 0.174}, {"measurement": "glycan array binding signal (z-score)", "setting": "[29]", "value": -0.334}, {"measurement": "glycan array binding signal (z-score)", "setting": "Neu5Ac(a2-3)GalNAc", "value": -0.251}, {"measurement": "glycan array binding signal (z-score)", "setting": "[30]", "value": -0.498}, {"measurement": "glycan array binding signal (z-score)", "setting": "[31]", "value": -0.614}, {"measurement": "glycan array binding signal (z-score)", "setting": "[32]", "value": -0.491}, {"measurement": "glycan array binding signal (z-score)", "setting": "[33]", "value": -0.104}, {"measurement": "glycan array binding signal (z-score)", "setting": "Neu5Ac(a2-6)Gal", "value": 0.626}, {"measurement": "glycan array binding signal (z-score)", "setting": "Neu5Ac(a2-6)Gal(b1-4)Glc", "value": 0.02}, {"measurement": "glycan array binding signal (z-score)", "setting": "[34]", "value": 0.076}]}
